Data on three compounds can be found in patent US11542275B2, “Substituted imidazolidin-2-one derivatives as PRMT5 inhibitors” (Aurigene Discovery Technologies Limited, priority 2018, dated 2023).

The target of the assay is PRMT5/MEP50 Complex (Homo sapiens (Human), UniProt O14744). Kind of assay: PRMT5 inhibition based on TR-FRET assay. The format is biochemical. Particulars: 32 nM PRMT5:MEP50 complex, 50 nM Histone-H4 peptide, 1 μM SAM, 90 minutes at room temperature. The source says:
Protein arginine methyltransferase 5 (PRMT5) is a type II arginine methyltransferase that catalyze mono- and symmetric demethylation on arginine residues of histone or non-histone proteins in presence of S-adenosylmethionine (AdoMet or SAM) a cofactor responsible for donating the methyl group. PRMT5 is reported to be overexpressed in several human cancers. To identify compounds that inhibit the PRMT5 and decrease its activity, a TR-FRET based assay has been established. Time-resolved fluorescence resonance energy transfer (TR-FRET) HTS assays are homogeneous proximity assays where the interaction of two dye-labeled binding partners is detected by the energy transfer between a donor and an acceptor dye, and the subsequent light emission by the acceptor dye. PRMT5 catalyzes Histone H4 peptide which is biotin tagged to the Lysine amino acid at carboxyl end, in presence of S-adenosyl-1-methionine (SAM) to methylate the peptide. The antibody specific to mono methylated H4 peptide (H4R3) with Ig conjugate binds to the methylated peptide, indirectly binding to the Europium lanthanide. SureLight Allophycocyanin-Streptavidin binds to the biotin tag of the peptide, therefore accepting the energy transferred from the Europium lanthanide. This energy transfer between Europium to SureLight Allophycocyanin is a direct measure of the activity/inhibition of the PRMT5 enzyme.
Assay buffer: 20 mM BICINE (pH 7.6), 25 mM NaCl, 2 mM DTT, 0.01% Tween-20 and 0.01% BSA.
The compound dilutions were prepared as 7.5% DMSO stock solutions in assay buffer. To 2 μL (7.5×) of test compound, 5 μL of PRMT5 enzyme prepared in assay buffer (Final concentration of 32 nM in 15 μL reaction volume) was added and allowed for 30 minutes pre-incubation time in a white polystyrene 384-well plate at room temperature. […] The plates were then read on Victor-3 with Excitation at 340 nm and Emissions collected at 615 and 665 nm in TR-FRET protocol. […]
For orientation: In TR-FRET formats the signal depends on donor and acceptor labels being close together.

What is called IC50 is the concentration that gives 50% inhibition. Higher therefore signals weaker potency in that assay.

The compound `CCOC(=O)C(C)(C)C1CCN(c2ccc(CN3CCN(C[C@H](O)CN4CCc5ccccc5C4)C3=O)nc2)CC1` [Compound 13, ethyl(R)-2-(1-(6-((3-(3-(3,4-dihydroisoquinolin-2(1H)-yl)-2-hydroxypropyl)-2-oxoimidazolidin-1-yl)methyl)pyridin-3-yl)piperidin-4-yl)-2-methylpropanoate] registered an IC50 of 17 nM. This counts as double-digit nanomolar. In the case of `O=C1N(Cc2cnc(N3C4CCC3COC4)cn2)CCN1C[C@H](O)CN1CCc2ccccc2C1` [Compound 24, 1-((5-(3-oxa-8-azabicyclo[3.2.1]octan-8-yl)pyrazin-2-yl)methyl)-3-((R)-3-(3,4-dihydroisoquinolin-2(1H)-yl)-2-hydroxypropyl)imidazolidin-2-one] it was 234 nM. In the case of `O=C1N(Cc2ccc(N3C4COCC3C4)cn2)CCN1C[C@H](O)CN1CCc2ccccc2C1` [Compound 29, 1-((5-(3-oxa-6-azabicyclo[3.1.1]heptan-6-yl)pyridin-2-yl)methyl)-3-((R)-3-(3,4-dihydroisoquinolin-2(1H)-yl)-2-hydroxypropyl)imidazolidin-2-one] it was 163 nM.
